Results reported in the supplement of paper PMC10126150.
Sequences with one replicate were seen in a single cluster, so their values are uncertain.

System: ATP
Test: switch fluorescence ratio, 500 uM ATP over buffer (Cy3 cluster intensity, sum of 5 cycles each) (fold (ratio)); higher = stronger signal-on switching upon ATP binding; sequences stand for … in TCGTCGGCAGCGTCAGATGTGTATAAGAGACAGTTTTTTTTTTTTTTTTTTTTTTTTT…TC
Conditions: aptamer strand: ATP DNA aptamer (quencher-CACCTGGGGGAGTATTGCGGAGGAAGG + anchor), 100 nM annealed; ATP concentration: 500 uM; one replicate
Procedure, shortened: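 The quencher-labelled ATP aptamer, at 100 nM, was annealed to Cy3-labelled switching-strand clusters on a modified Illumina MiSeq flow-cell. The clusters were imaged in selection buffer, then after 15 min with 500 uM ATP at 22 °C, and this buffer/ATP cycle ran five times with NaOH stripping and re-annealing between runs. Per-cluster fluorescence ratios, summed target-cycle over summed buffer-cycle Cy3 intensity, were averaged per switch-domain sequence. Clusters outside 100-1000 RFU were excluded.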
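Note: ATP exposure 15 min at 22 °C before imaging.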

Sequence | switch fluorescence ratio
TGGTGTCGCC | 1.01
TGTTCGGATC | 0.995
TTTACTTTG | 1.05
GCAGAGGGAG | 0.989
TTTGTAATA | 1.01
CATGTACCTT | 1.16
ACGTTCATCT | 1.02
CGCGAGGCAG | 1.04
TATTGAGGCG | 0.986
AGGAATCAAC | 0.964
GGTATGCCGT | 0.908
GTTTTTTTCA | 0.97
GGTGGCGATT | 1.04
CCCTTAAACG | 1.09
ACAACAAATT | 0.994
AATTTCGCCC | 0.962
CCGAGGGA | 1.17
CACGTATATA | 1.25
TGTGAGTACA | 1.02
CATCAAACAT | 1.06
TGCCCGTTTT | 0.966
GCGAGCGCGT | 0.99
CTCATTAAAT | 0.975

Sequence | switch fluorescence ratio
CATATAAACA | 1.02
GCCGCGTTCC | 1.21
TCATAGAATA | 0.996
CGAGTTTGAT | 1.03
TGAAGCAGAA | 1.3
GAGTGTCCCC | 1.01
ATAATATTCA | 0.977
GTTACCTGGA | 1.14
GATATTCATA | 0.974
GAAAGGTGCA | 0.995
GTTGCGTGGT | 1.02
CGGTGTCAAG | 0.989
TCGTCCTTGG | 1.14
CGCCCGCTCA | 1.39
GGGCCGCGTA | 1.03
CAGATACGTC | 1.01
GGAAGATGCG | 0.972
CATGTCGTCT | 1.05
TATCTCGTG | 1.02
AATTTGGATT | 0.994
TGGTAGTGCA | 0.985
CCCAGAACGA | 1.12
CTACAAGTA | 1.04

Sequence | switch fluorescence ratio
GTCGCCCTCG | 1.01
ATGGGTTAAG | 1.02
GTCGGGGCAA | 1.09
GAATTCCAGG | 1.23
GGAGACGTAT | 1.06
CAGGAAGGTT | 0.948
GGCGCTAGGG | 1.01
AGTGATGGA | 1.01
CAAGGATTCT | 1.01
AAAGGGTGAA | 0.97
CGTTGGACCT | 1.05
AACTCCAACG | 1.13
ATGGCAGGC | 1.05
GAGGTGCGCT | 0.964
GCCGAACGAG | 1.09
AGTTGTGCTA | 0.994
CAAGTCTGCT | 0.941
CTGATATAGC | 1
TACCTGGCTG | 1.03
TAACCGCCAT | 1.38
CGATTAAGAC | 1.14
AGCAGGTATG | 1.03
GGCCGCCTGT | 1.03

Sequence | switch fluorescence ratio
CCAAACGATG | 0.986
CGGGATCTTA | 0.958
TCAACATGGG | 0.971
CGGTTTGGTT | 0.973
ATGGATAATA | 1.03
TACCTGTGCT | 1.01
CTACTATACC | 1.4
ACATGGTGCG | 1.04
TCTTACTCGG | 1.12
GGATCGCTGT | 1.04
GAATGTCCTC | 0.994
ATAGACAAGG | 0.969
ACTGCACTCT | 1.26
TTCAAACCGC | 1.16
TCTTCTTCTG | 1.03
CTAGTCTGTG | 1.01
GGAGCGTGGG | 1.01
GTTTGCCGAA | 0.988
GCAGAAGTTC | 1.03
AAAATCCGTC | 1
GTTGTAGGT | 0.982
ATTAGCTATT | 1.02
CCTCTTTAGT | 1.03

Sequence | switch fluorescence ratio
TCAGGGTCCA | 0.97
GCTTTGCTAT | 1.03
TCCGTATGGT | 1.01
GTAGATGGCT | 1.02
TCAATGGAA | 1.04
TTAGAGCCCT | 1.02
TTAAGTCTCT | 0.985
GAATGAATGA | 0.979
ACACCCTGGA | 1.24
GTAACTTTTA | 0.986
CGGATTTAGC | 0.996
TTTCAATGAT | 1.01
CAAGTGGCTA | 1
GCTTTCGCCG | 1.06
GGGTTGGGA | 1.05
GCGGAAGATT | 1.02
CCATATGTGT | 0.982
TATCGAGCTG | 1
GGGGTTGAC | 0.997
GCGCGCTTAT | 1.01
TAAAGGTAAA | 0.971
GGTCCTTTTT | 0.984
GTGGTAGAAC | 0.976

Sequence | switch fluorescence ratio
TCTCCGTAGG | 1.22
CATGGAGCCA | 1.01
CCTTAGCCTT | 1.32
TCTAGAAATG | 0.986
CACGTTTGTA | 1.01
ACCCGTAAAT | 1.12
TATGTGACGG | 0.982
TTCCGACTGT | 1.56
CCTGGGCCCG | 1.01
CTCTAGACGG | 1.03
TAGTCCATTC | 0.927
TTACGAAATC | 1.29
TGCTAATC | 0.999
TCTGTTGAGG | 1.01
AAGGGAAATA | 0.985
GCCCTTTTGC | 1
AAGGCTAATC | 0.987
TGGCTATGCA | 0.98
CTCGGGCTTT | 1
CGGGTCAGTT | 1.07
GTTTCCACGG | 1.02
AGGTCACTCT | 1
CGACCATTG | 0.992

Sequence | switch fluorescence ratio
GGAAAGGATT | 1.07
AGATCCTTGG | 1.05
CTCCATAATG | 1.32
TAAAGTCATG | 1.01
TAGACGGAGC | 1.07
ATACTGGCAT | 0.99
CGGGTGCCGA | 1.01
AGGGCCGGGT | 1.02
AAGGAAACTA | 1.02
CCTAGTGGCA | 1
ATCGTCGGAA | 1.04
AGGAAAGGTG | 1.28
GAAAGCCGTT | 0.935
GGTCCATTGG | 1
TGTAAGAACG | 1.07
ATGTCTTATT | 0.945
GAATACGACC | 3.79
CCCAGCCACC | 1.26
CTATTGATAT | 1.02
